# Measured values as given in the supplement of paper PMC12217912.
# The list shows a part of the results. Sequences were assembled here from the parent chain. Inactive controls read about 0.05.
# B1: TEV protease; numbered along this chain (parent)
# chain: MGESLFKGPRDYNPISSSICHLTNESDGHTTSLYGIGFGPFIITNKHLFRRNNGTLVVQSLHGVFKVKDTTTLQQHLVDGRDMIIIRMPKDFPPFPQKLKFREPQREERICLVTTNFQTKSMSSMVSDTSCTFPSGDGIFWKHWIQTKDGQCGSPLVSTRDGFIVGIHSASNFTNTNNYFTSVPKNFMELLTNQEAQQWVSGWRLNADSVLWGGHKVFMVKPEEPFQPVKEATQL
# Variants of: B1
# Assay: raw area under fraction-flipped curve 0-4 h after induction (AUC4h, not background-subtracted), DNA-recorder readout of cleavage of the substrate (dimensionless); higher = more cleavage of the substrate by the protease variant
# Details: temperature: 34 °C; time window: 0-4 h after rhamnose induction
# Protocol: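 In vivo DNA recorder in E. coli TOP10(DE3) ΔrhaA at 34 °C. Each TEVp single-site mutant (parent TEVp 0) is paired with a single-site variant of the 7-mer TEVs (canonical ENLYFQ|S). The substrate sits between flexible linkers in a Bxb1-sfGFP-TEVs-SsrA fusion, so cleavage stabilises Bxb1 and speeds flipping of a recombination array, read by NGS. The value is the raw area under the fraction-flipped curve over 0-4 h after rhamnose induction (AUC4h), with ≥20 reads per time point. It is not background-subtracted; inactive controls average about 0.047.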
# 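Further: Bxb1 expression induced with 0.2% (w/v) L-rhamnose at OD600 near 0.5, cultures sampled hourly, flipped fraction per protease–substrate barcode pair counted by paired-end Illumina sequencing.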
Variant,area with substrate ENLCFQS,area with substrate ENLDFQS,area with substrate ENLEFQS,area with substrate ENLFFQS,area with substrate ENLHFQS,area with substrate ENLIFQS,area with substrate ENLLFQS,area with substrate ENLNFQS,area with substrate ENLRFQS,area with substrate ENLVFQS,area with substrate ENLWFQS,area with substrate ENLGFQS,area with substrate ENLKFQS,area with substrate ENLPFQS,area with substrate ENLMFQS,area with substrate ENLQFQS,area with substrate ENLSFQS,area with substrate ENLTFQS
D11I,0.0628,0.0687,0.0732,0.0857,0.0801,0.0846,0.0605,0.0659,0.0634,0.0983,0.0598,–,–,–,–,–,–,–
M219R,0.0567,0.0628,0.0759,0.0821,0.0728,0.0565,0.0688,0.0705,0.058,–,0.0792,0.0614,0.0532,0.0687,–,–,–,–
E189V,0.0778,0.0687,–,0.0637,0.0545,0.0761,–,0.0627,0.0625,0.108,–,–,0.0776,0.0608,0.072,0.0633,0.0723,0.0473
D79L,0.0665,0.0485,0.0588,0.0908,–,0.0801,0.0679,0.0685,0.064,–,0.0655,–,0.0715,0.0609,0.071,–,–,–
E195C,0.074,0.0494,0.0914,–,0.0636,–,–,0.057,–,–,0.0651,–,0.0681,0.0284,–,–,–,–
S135D,0.043,0.0498,0.0555,0.0807,–,0.0872,0.068,0.063,–,0.0772,0.0858,–,0.068,–,–,–,–,–
W144L,0.118,–,0.0568,0.0809,–,0.0673,–,0.0746,–,0.105,0.0848,–,0.0745,0.0489,–,–,0.0546,–
F133D,0.0759,0.062,0.0573,0.0854,0.062,–,–,0.054,–,0.0798,–,–,–,0.0538,0.0686,–,0.0524,–
Y12P,0.0779,0.0679,0.0578,0.0904,0.0654,0.0784,0.0692,0.0687,0.0762,0.0668,0.12,0.0685,0.0814,–,–,0.0637,0.0772,–
F218H,0.0694,0.058,0.0659,0.0732,0.0657,0.066,0.0684,0.0666,0.0642,–,–,0.0862,0.0689,0.058,–,–,0.0561,0.0755
V229H,0.0752,0.0406,–,0.0991,–,–,0.0771,0.0706,0.0735,0.0922,0.0707,–,0.0762,0.0631,–,–,–,–
P222M,0.0994,0.0647,0.0664,0.0748,–,0.0275,0.0743,0.0613,0.063,0.0662,–,0.0626,0.0814,0.0702,0.0557,0.0707,–,0.0802
K148N,0.0656,0.0581,0.0612,0.0812,–,0.0677,0.0636,0.0731,–,0.0657,–,0.106,–,0.0518,0.0717,–,0.0706,–
N116A,0.0807,0.0583,0.12,0.0912,0.0687,0.0757,0.104,0.0568,0.0763,–,0.063,0.0752,0.0835,0.0424,–,0.073,0.0644,–
